# In PubChem BioAssay AID463173 (ICCB-Longwood Screening Facility, Harvard Medical School, 2010):
# The campaign covered roughly 52,000 compounds. About 1,700 (3.3%) were called active. Cut-off read from the data, not from the text of the source: active = survival mostly below about 52% (no sharp cut-off); inactive = mostly above about 56%. This is one part of the list.
# Test system: Wild type
# Test: growth inhibition of S. aureus wild type versus tarO mutant, primary screen, teichoic acid synthesis inhibitors, RN4220, OD600 (AID 463173)
# Details: S. aureus RN4220 wild type/DeltatarO growth, OD600, 18 h, stronger effect = lower value, screened at 18.75 µg/mL (by protocol)
row,Compound,survival
1,COc1ccc(C2NC(=O)N(C)C3=C2C(=O)N(c2cccc(C(=O)O)c2)C3)cc1 (stereo not given),inactive: 89%
2,O=C(CN1C(=O)COc2ccccc21)N(Cc1ccccc1)Cc1ccccn1,inactive: 112%
3,COc1ccc(N2C(=O)Cc3cc(OC)c(OC)cc3C2c2ccc(F)cc2)cc1 (stereo not given),inactive: 87%
4,CC(CCc1ccccc1)NC(=O)CSc1n[nH]c(-c2ccc(F)cc2)n1 (stereo not given),inactive: 134%
5,COc1ccc(CNC(=O)CN2C(=O)CCn3nc(-c4ccccc4)cc32)c(OC)c1,inactive: 88%
6,COc1ccc(S(=O)(=O)Nc2cc3c(C(=O)OC(C)C)c(C)oc3c3ccccc23)cc1,inactive: 63%
7,CCN(CC)C(=O)Cn1cnc2ccccc2c1=O,inactive: 97%
8,COc1ccc(-c2ccc(CCC(=O)O)n2-c2ccccc2O)cc1,inactive: 110%
9,CC12CC(C(C#N)=C(N)N1)c1ccccc1O2 (stereo not given),inactive: 116%
10,Cc1cccc(Cn2cc(C(=O)Nc3cc(F)ccc3F)ccc2=O)c1,inactive: 81%
11,Cn1c(Nc2ccc(Cl)cc2)cc(=O)n(C)c1=O,inactive: 73%
12,CC1=C(C(=O)Nc2ccc(C)cc2C)C(c2ccc(O)cc2)n2nc(SCC(=O)c3ccc(C)cc3)nc2N1 (stereo not given),inactive: 140%
13,COc1ccc(C(=O)c2sc3nc(-c4ccc(F)cc4)ccc3c2N)cc1,inactive: 100%
14,COc1ccc(-c2nc(Cn3c(SCc4cccc(C(F)(F)F)c4)nc4cccnc43)c(C)o2)cc1OC,inactive: 92%
15,Cc1oc2ncn(C)c(=O)c2c1C(=O)NCc1ccc(Cl)cc1,inactive: 69%
16,Cc1cc(OCC(O)CN2CCN(c3cccc(Cl)c3)CC2)ccc1Cl (stereo not given),active: 0%
17,COc1ccc(OC)c(CNC(=O)C2CCCCN2S(=O)(=O)c2ccc(F)cc2)c1 (stereo not given),inactive: 49%
18,COc1ccc(C(=O)Nc2ccc(S(=O)(=O)N(Cc3ccccc3)c3ccccc3)cc2)cc1,inactive: 79%
19,COc1ccc(-c2nn3c(=O)cc(CN4CCN(S(=O)(=O)c5ccc(C)cc5)CC4)nc3s2)cc1,inactive: 67%
20,CC(O)CN(N)C1=NS(=O)(=O)c2ccccc21 (stereo not given),inactive: 98%
21,CC(C)CC(OC(=O)c1cccs1)C(=O)NCc1cccs1 (stereo not given),inactive: 96%
22,CCCc1nn2c(=O)cc(COC(=O)c3ccc(NC(=O)C4CCCCC4)cc3)nc2s1,inactive: 59%
23,CC(C)Cc1nn2c(=O)cc(COC(=O)c3ccccc3NC(=O)C3CCCCC3)nc2s1,inactive: 81%
24,Cc1cc(S(=O)(=O)Nc2ccc(C(=O)O)cc2)c(C)c(S(=O)(=O)c2ccc(Cl)cc2)c1,inactive: 78%
25,COc1cccc(NS(=O)(=O)c2ccc3c(c2)N(C)C(=O)CC(=O)N3C)c1,inactive: 78%
